Measured values from the supplement of paper PMC3334620.
The full ranking holds about 33,000 sequences; the median of “E-score (-0.5 to 0.5)” is about -0.016, and the highest 2% start at about 0.31. Some of the results follow.

Biological target: Cst6 (UniProt P40535)
Assay: PBM E-score (8-mer binding enrichment) (E-score (-0.5 to 0.5)); higher = stronger / more preferred TF binding; most listed sequences are background and not binding sites
Conditions: protein concentration: 200 nM; construct: GST-DNA-binding domain
Method in brief: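 Universal all-10-mer Agilent arrays, double-stranded by primer extension on fresh or once-stripped slides, were probed with about 100-200 nM GST-tagged yeast transcription factors made by PURExpress. Fluorescent anti-GST detected bound protein, and masliner normalised the scans. E-scores from the Universal PBM Analysis Suite were given to each ungapped eight-base word pooled with its reverse complement.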

| Sequence | PBM E-score |
| --- | --- |
| GATCACGA | 0.0488 |
| CGCGTAGC | 0.0231 |
| CCCTACGG | -0.118 |
| CGAGCTCG | 0.0607 |
| GGCGTAGA | 0.0755 |
| CTAACACC | -0.148 |
| AATTCGCA | 0.149 |
| GGGCTCAA | -0.174 |
| CAGAGGTA | 0.0151 |
| GGATCCAC | -0.208 |
| GATGCCGC | 0.243 |
| CTGCCTCA | -0.145 |
| GATTAGCA | -0.00515 |
| TCGCAACA | 0.0733 |
| ATTGACCA | 0.0509 |
| CGCTAATA | 0.109 |
| GTTAAACA | 0.162 |
| AGCCCCGC | -0.0935 |
| AAGTGGCA | -0.0565 |
| GATGCCCC | -0.211 |
| AAACAAGT | 0.141 |
| CTGGGGCC | -0.361 |
| GCAATGGA | 0.0982 |
| ACTACCGG | -0.272 |
| AACAGGTG | -0.054 |

| Sequence | PBM E-score |
| --- | --- |
| CCAAATCG | 0.0121 |
| CCTCAGAC | -0.0304 |
| GGGGTACA | -0.335 |
| ACAATACC | 0.199 |
| ACCACATC | 0.114 |
| ATGTTGAG | 0.0156 |
| AACTTTGG | 0.0661 |
| GCAATTCC | -0.0773 |
| AGCAGTAC | -0.0567 |
| ACCACGTC | 0.102 |
| CTCTCGTA | -0.113 |
| GCACCCCC | -0.304 |
| ACCGTGAT | 0.118 |
| ACCGGGTG | -0.19 |
| ACCTGACG | 0.166 |
| GGGGAACC | -0.33 |
| TGGTCACA | 0.0201 |
| CTGACCAA | 0.00651 |
| AGCAACCT | -0.053 |
| ATTGCACC | 0.0773 |
| CCTTGATA | 0.112 |
| ATATTAAT | 0.278 |
| ATCTAGCA | 0.0103 |
| GGCGCTTA | -0.0518 |
| ACGACAAC | 0.184 |

| Sequence | PBM E-score |
| --- | --- |
| ATGTGAAC | -0.00899 |
| AGCGCTTA | 0.0246 |
| TAAATTAA | 0.127 |
| AAAGTAGG | 0.157 |
| AGAGGCTG | -0.377 |
| GTTGACTA | 0.0191 |
| ACATGTAA | 0.203 |
| GCCTTGGA | 0.069 |
| AACTCTCT | -0.217 |
| ACTGCCCG | -0.159 |
| CTCAAACA | 0.165 |
| TAGGCCCA | -0.194 |
| ATATCTGC | 0.137 |
| ACGATAAA | 0.112 |
| ACGTCCCT | 0.162 |
| AGCCGCAT | 0.338 |
| CTCTAGAC | -0.264 |
| ACATACTA | 0.0612 |
| ATGAAAAG | -0.0551 |
| AACCACCA | 0.00505 |
| AACGCTTC | -0.00173 |
| CTAAAGAA | 0.11 |
| ACCGCGGG | -0.115 |
| CATCTCGG | -0.148 |
| ATATGACG | 0.472 |

| Sequence | PBM E-score |
| --- | --- |
| ACCACAGA | -0.117 |
| AAATCGTC | 0.144 |
| AGAGCCAG | -0.209 |
| CACCATTA | 0.154 |
| ACTGCTTA | -0.0493 |
| AACAGCCA | 0.148 |
| CTCTAATA | 0.223 |
| ACCTCGTG | -0.00326 |
| ATGTCGTC | 0.163 |
| ACTTCGCC | 0.0981 |
| CGAGTTCA | -0.0549 |
| AAGGATAC | -0.169 |
| GGGCCTAA | -0.282 |
| CCTTTACA | -0.00965 |
| CCACGATA | 0.00768 |
| AAACTGAA | 0.0424 |
| ACGACCGG | -0.345 |
| AAGGGTTC | -0.198 |
| ACTTATTG | 0.106 |
| ATTATGTG | 0.228 |
| AGTAGAGG | -0.237 |
| TAACTGTA | 0.032 |
| AGTTACGC | 0.0936 |
| GCCACGAC | -0.0747 |
| CTGACCAG | -0.148 |

| Sequence | PBM E-score |
| --- | --- |
| ATAGACGG | 0.0397 |
| AGCGAGAG | -0.0445 |
| CTACATCA | 0.302 |
| TAGTATCA | 0.22 |
| AGGTGATG | 0.271 |
| GAAAGGAA | -0.0123 |
| GCACTGTA | -0.00858 |
| ATTGGAAC | 0.148 |
| AATGACCT | 0.25 |
| CCATGGAA | -0.0645 |
| GTGTGGAA | 0.0515 |
| CTCTGTTA | -0.00703 |
| GGAAGCAA | -0.0297 |
| GACACGGC | 0.291 |
| ATCATTTA | 0.335 |
| CATAAGGC | 0.194 |
| ATTGCGCG | 0.263 |
| GAATGCCC | -0.16 |
| ATGTGGAG | -0.0629 |
| CCAGATTC | -0.266 |
| CACGCCCG | -0.175 |
| TCGCAGCA | -0.0127 |
| GAAACATC | 0.00667 |
| ACCTAATC | 0.232 |
| AAAGATAT | 0.174 |

| Sequence | PBM E-score |
| --- | --- |
| ATGCCTGA | -0.141 |
| ATTAGCCC | 0.00901 |
| CTCCCAAG | -0.277 |
| GTCCTTCA | -0.0707 |
| CATCCGTC | 0.0423 |
| AGATTGCC | -0.163 |
| CGACAATA | 0.142 |
| TCGCATAA | 0.148 |
| GTGATACA | 0.177 |
| AAACCCTG | -0.134 |
| CACTCGGG | -0.209 |
| CCCCAGCG | -0.216 |
| TACCCCAA | -0.11 |
| AGGTGCTG | -0.194 |
| AAAATTAG | 0.159 |
| AACGAGAC | -0.101 |
| CATACAAA | 0.235 |
| AATACAGT | 0.0826 |
| CTCACGTA | -0.00865 |
| AAGTTTAA | 0.00739 |
| CGAACGTC | 0.129 |
| AAAGGGTT | -0.0393 |
| ACATACAA | 0.109 |
| GACCTGCA | -0.169 |
| AGAGCGGA | -0.0178 |

| Sequence | PBM E-score |
| --- | --- |
| AATCACCT | 0.13 |
| AAGGGTCT | -0.139 |
| CTTGGATA | -0.029 |
| ACCAGTAG | -0.096 |
| ATTGGCGA | -0.0278 |
| GTTTAGGA | -0.234 |
| CTGTACGA | -0.0659 |
| AGTGTGAG | -0.0176 |
| CAAATCCA | -0.0205 |
| CGCCACCG | -0.007 |
| AAGGACTT | -0.296 |
| AGCCTCAT | -0.119 |
| ATCTCATC | 0.0588 |
| CGAACCCA | -0.169 |
| AAACTCTC | 0.129 |
| CATGGTTA | 0.161 |
| CCTGATCA | -0.257 |
| CGTCATCC | 0.473 |
| AAAGGATC | 0.0311 |
| CCTGGGAA | -0.136 |
| CCGATTCG | 0.123 |
| ACGGTCAA | 0.146 |
